Results on 109 sequences are retold here after PMC5836133.

The other results are listed elsewhere or left out. At the low end of the ranking the order means little.

The subject of the experiment is T1, GST-NbGlk1(82-244).
T1 sequence: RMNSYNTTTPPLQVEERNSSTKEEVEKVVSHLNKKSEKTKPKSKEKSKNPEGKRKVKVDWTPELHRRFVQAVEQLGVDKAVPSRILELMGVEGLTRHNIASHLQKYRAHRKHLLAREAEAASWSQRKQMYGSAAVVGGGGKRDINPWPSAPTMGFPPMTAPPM
The experiment can be described thus: protein-binding microarray.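 Also: rank-based score ranging −0.5 to +0.5 with E above 0.45 taken as significant binding.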 Conditions: NbGlk1 is a Golden2-like transcription factor of Nicotiana benthamiana; high values mean tight binding; most listed sequences are background and not binding sites; double strand, one strand shown.
As to ACTACGCG, the binding signal amounted to 0.0382 E-score. The same measure for AGGGCATG: -0.265 E-score; for ACCCGTAG: -0.178 E-score; for ACGTCTTG: -0.149 E-score. ATGAGGGA: the binding signal was -0.0136 E-score. Sequence CAACGTTA yielded a binding signal of -0.0487 E-score. As for AATATGCT, the figure is 0.115 E-score. The same measure for ATAAGTAT: 0.0941 E-score; for AAGCCATA: -0.133 E-score; for ACTTACGC: -0.0622 E-score. The sequence AGTGAGTC had a binding signal of -0.164 E-score.

ACGGCATA yielded a binding signal of -0.00409 E-score. The same measure for ATAGGAAA: 0.192 E-score; for AGACCTCT: -0.138 E-score. As for AGCCGAAA, the binding signal worked out at 0.0198 E-score. ACCAAACC: the binding signal is -0.149 E-score.

On to AACTACCG, for which the binding signal is 0.0236 E-score.

The sequence CACTTCGA displayed a binding signal of 0.0443 E-score. For the sequence CAAAGCGG, the binding signal is -0.0361 E-score.

Sequence ACTTAACT gave a binding signal of -0.0443 E-score. As for AAAATTGA, the binding signal came out at 0.123 E-score.

For CACGTTGC, the binding signal is -0.0192 E-score. The same measure for AACCAGTA: -0.012 E-score. As for AATTGCCC, the figure is 0.0735 E-score. As for ACACTGTA, the figure is 0.0714 E-score; as for CAAAACTA, 0.0978 E-score; as for ACTTTGTA, -0.0223 E-score. In turn, AAGATCAT displayed a binding signal of 0.214 E-score.

AGAATAAC registered a binding signal of 0.136 E-score. As for ATGCTAGA, the figure is -0.0343 E-score; as for CAGAGTAA, 0.0048 E-score.

Sequence AGCTGGCG returned a binding signal of -0.132 E-score. The same measure for ATGAATTC: 0.0427 E-score; for ACAATGTC: -0.0634 E-score. As for AGTGTGCC, the binding signal is -0.251 E-score. As for ACGTTGCG, the binding signal was -0.0644 E-score. The same measure for AAAGCCGG: -0.145 E-score; for ATCGCATG: 0.29 E-score; for AGGTTCAC: -0.121 E-score.

Sequence AAAAAGGT yielded a binding signal of -0.156 E-score. As for AAATTGCG, the figure is 0.262 E-score; as for AGCGACAT, -0.0052 E-score. In turn, AAGTATTG displayed a binding signal of 0.0706 E-score.

AATTATCC: the binding signal was found to be 0.204 E-score. As for AATACTAT, the figure is 0.0517 E-score; as for AGCGTACG, -0.223 E-score; as for AGGCACGA, -0.134 E-score. As for ATCGTAAT, the figure is 0.375 E-score. Sequence AATGCAAC yielded a binding signal of 0.0364 E-score. ATAATCTG displayed a binding signal of 0.356 E-score. The same measure for AGACGTAT: 0.0365 E-score; for ACGCGACT: -0.18 E-score; for ATCGGACG: -0.0904 E-score.

Turning to CACTTTAG, the binding signal is -0.0666 E-score. ATCTGCAG yielded a binding signal of 0.284 E-score.

ACGAAGAC showed a binding signal of -0.107 E-score.

Sequence ATGCTTAC gave a binding signal of -0.0841 E-score. Regarding CAAACGGA, the binding signal was 0.0467 E-score. As for AATGTGAC, the figure is -0.126 E-score.

As for ACATCCGA, the binding signal was 0.0402 E-score.

For ACGATGTC, the binding signal is -0.104 E-score. The same measure for AGTGTAAG: 0.000137 E-score; for ATCTCAGC: 0.22 E-score. ATTACTAC registered a binding signal of 0.166 E-score.

ATCCCTGC returned a binding signal of 0.0952 E-score.

As for AACTTCGA, the binding signal was -0.0409 E-score. The same measure for AAGGACAA: 0.0386 E-score; for AGGAGAAG: -0.122 E-score; for CAGAGATC: 0.312 E-score. The same measure for ATGTGCAA: 0.0252 E-score; for ACAAATCA: 0.262 E-score; for AGGATGAC: -0.0664 E-score. The same measure for ACACGGGT: -0.166 E-score. For ATCCAGCG, the binding signal was determined as 0.0657 E-score. The same measure for AGATACGA: 0.332 E-score. As for AGCCCGTC, the figure is -0.184 E-score; as for ACGTTGCC, -0.209 E-score. The same measure for ACACCGCG: -0.14 E-score. With ATGCATGA, the binding signal is -0.0778 E-score.

In the case of ACCACACC, the binding signal was -0.0584 E-score.

Regarding AAGGCGAA, the binding signal was -0.0188 E-score. As for AGTCGCTG, the figure is -0.16 E-score. The same measure for CAGACCGC: -0.152 E-score.

Sequence ATTGTGTC displayed a binding signal of 0.225 E-score.

For ACTATTTA, the binding signal was -0.0278 E-score. The same measure for ACTATGCT: -0.0712 E-score; for ATACAGGA: 0.175 E-score. AACAGGAT gave a binding signal of 0.234 E-score. CAAAGTCA displayed a binding signal of -0.06 E-score. The same measure for AATGAACC: -0.172 E-score; for ACTGTGGG: -0.172 E-score. The same measure for ACCGCCCC: -0.226 E-score; for AGACAGTG: -0.0618 E-score; for ACATCAAC: -0.0246 E-score. The same measure for AGGCAGAG: 0.0424 E-score. For ATCAAATC, the binding signal is 0.36 E-score. The same measure for AAATCTAG: 0.452 E-score; for AAGTCCGA: -0.0569 E-score. The same measure for AGTGGGTG: -0.192 E-score.

The sequence ACATGCCT came in with a binding signal of -0.0526 E-score. The same measure for ACTTCGAT: 0.152 E-score; for AAACGTGG: -0.06 E-score. As for ATCCCATG, the figure is 0.13 E-score; as for AGGAAACG, -0.197 E-score; as for CACCCGCG, -0.195 E-score.

Regarding AATCGGGC, the binding signal amounted to 0.192 E-score. As for ACAAGGCT, the figure is -0.268 E-score; as for ATTATGAG, 0.0798 E-score. As for ACACGACC, the figure is -0.148 E-score.
